For 167 variants, self-cleavage results are on record in the RNAGym collection of RNA variant scans (doi:10.1093/nar/gkz1192).

Read counts are not given, so values of variants with three or more changes are uncertain.

B1: CPEB3 Ribozyme (parent)
chain: UAACAGGGGGCCACAGCAGAAGCGUUCACGUCGCAGCCCCUGUCAGAUUCUGGUGAAUCUGCGAAUUCUGCUGUAUAUCUC

Variants of B1 are the subject of this data set. The data set can be described thus: self-cleavage, relative activity (ratio to wild type); higher = more cleavage; in vitro, sequencing. The essentials:
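Relative activity compares each variant's cleaved/total read fraction with that of the unmutated ribozyme. To get these fractions, barcoded CPEB3 ribozyme libraries from rounds of error-prone PCR were transcribed with T7 RNA polymerase for 5 hours at 37°C and then given 15 min of DNase I treatment before EDTA was added. The RNAs were reverse transcribed with template switching and sequenced on Illumina, and DNA sequencing linked barcodes to variants. A minimum of 5 reads applied, and three batches were averaged.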
As for A15U C29U C40G U43C U60C, the self-cleavage stood at 0.17.
As for A15U A65C U67A A75U U78G, the figure is 0.1; as for A15U G16C A21G U31C U41C U76A, 0.31.
As for A15U C38U A45G U60C, the figure is 0.81; as for A15U A21U U72C, 0.18; as for A15U A21G C40U U60A C71A U74C A77G, 0.06.
Under A15U A18G U25C U54C stands 0.04; under A15U A35U U43C A65G U72C A75G, 0.06.
Regarding A15U G19A U43C, the self-cleavage amounted to 0.08.
Under A15U A18G C62G U66C U69C stands 0.11; under A15G U67C U74C U80C, 0.2.
Turning to A15G U51C G55A U72A, the self-cleavage stood at 0.15.
Under A15G U43C U48C U54C stands 0.2; under A15G U31A A35U A65G U72A, 0.07.
A15U A20G A45G: the self-cleavage amounted to 0.38.
Turning to A15G U26C A35U U51A A64U U66C, the self-cleavage amounted to 0.04.
A15U A35G U43G U49A A64G: the self-cleavage came out at 0.08.
Under A15G U31G U67C stands 0.19.
A15U U54G A56U C62U U76C: the self-cleavage turned out to be 0.12.
Under G16A A20G A35G A47G stands 0.43; under A15G U69A A77U, 0.29; under A15U G30U U58C, 0.07.
Consider A15U C40U A56G A65G, for which the self-cleavage is 0.23.
On to A15G U43C C50A U80A, for which the self-cleavage was found to be 0.18.
For A15U A45G A65U, the self-cleavage is 0.55.
Under A15U U43A A57G stands 0.82; under A15G U41A A64U, 0.26; under A15U A35U A56U, 0.18.
Under A15G U41C U49A stands 0.51.
A15U C62U U69A U72C: the self-cleavage came out at 0.15.
With A15U C29U G52A U66C U72A A75U, the self-cleavage worked out at 0.15.
Under A15G U43A A57G stands 0.76.
Under A15U A21G U48A stands 0.07.
With A15U A56G U72A, the self-cleavage was found to be 0.58.
Take A15U U72C U78C: the self-cleavage was found to be 0.78.
Under A15U G63A U67C U72A stands 0.12; under A15G U43C U76C, 0.5.
Under A15U A18U U31C G52A U60C stands 0.47; under A15U A20G U25C A56G A57G A65U, 0.05; under A15U A20G U31A A56U, 0.12.
On to A15U U43C A45G U66C, for which the self-cleavage was determined as 0.15.
As for A15G U58C U66C, the self-cleavage was 0.11.
On to A15G U66C C68A U80A, for which the self-cleavage turned out to be 0.12.
For the variant A15U A20G G63U U76A, the self-cleavage was found to be 0.95.
As to G16U A28C U31A, the self-cleavage was found to be 0.2.
Take A15U U31C A45C U58C U69G U72G U74A: the self-cleavage came to 0.04.
As for A15U A28U C37G, the figure is 0.15.
Consider A15U G19A U80A, for which the self-cleavage was 0.07.
Consider A15U A45G G70A, for which the self-cleavage came out at 0.09.
As for A15G U31C U58A, the figure is 0.47; as for A15G U41G A64U, 0.13; as for A15U U31A U60A A64G, 0.14.
For A15G U26C U72C, the self-cleavage worked out at 0.73.
As for A15G U31C C32A A56G G73C, the figure is 0.22.
As for A15U U25C C34G A35G, the figure is 0.21; as for G16C U43C U67A, 0.1.
Consider A15U A20G C34U U43C, for which the self-cleavage turned out to be 0.22.
Take A15U U41A U72G U76A: the self-cleavage was 0.09.
As for A15G U60C U72C, the figure is 0.75.
For A15U U66C U76C, the self-cleavage came out at 0.29.
As for A15U U31C U43C A45G A57G A64G U80A, the figure is 0.09; as for A15G U31C U41A A45G U54C U69G, 0.22.
As for A15U G36C C40U U49A, the figure is 0.28; as for G16U A20G A28C U41C A65G, 0.06; as for A15U G46A U51G U78C, 0.19.
Turning to A15U A21G G53A, the self-cleavage was 0.37.
As for A15U G55A U78A, the figure is 0.32; as for A15U G42U U43C A45G U72C, 0.07.
Under A15U U58C U60C A64G stands 0.12; under A15U A28U U43C A57G U80A, 0.28; under A15U A35U U54C U67A U78C U80C, 0.09.
Under A15G U66A U69C stands 0.21.
Take A15U U26A A28G A45G U60A U66C C68A: the self-cleavage was 0.09.
Under A15U U58C A77G stands 0.38; under A15U A28G A65U G70U, 0.07; under A15G U41A G53A, 0.96.
On to A15U U41A A45G U66A C68U U72C, for which the self-cleavage came to 0.29.
Consider A15U A28G A35G A57U U67C, for which the self-cleavage stood at 0.11.
As for A15G U31C U51C U78C U80A, the figure is 0.17; as for A15U U26C A35G U58G U76A, 0.74; as for A15U C17U U26C C34U U76A A77G, 0.19.
In the case of A15G U26G U72C, the self-cleavage amounted to 0.57.
Under A15U U66C A75G stands 0.18.
Consider A15G U60C C62A U74C A75G, for which the self-cleavage amounted to 0.05.
For G16A A21G U26A A35G C40A, the self-cleavage is 0.06.
Take A15G U43A A75G: the self-cleavage was 1.17.
In the case of A15U C23U U49C U69A, the self-cleavage worked out at 0.14.
For the variant A15U U41C A77G, the self-cleavage was 1.1.
Under A15U G61A C68A stands 0.18.
Under A15U U49A U54C stands 0.33; under A15U G24C U26A G33U A75U, 0.03; under A15G U67G G70C, 0.17.
Take A15G U49C U60A: the self-cleavage was determined as 0.18.
In the case of A15G U31A U41G A75G, the self-cleavage turned out to be 0.05.
Under A15U U67C G73A stands 0.12; under A15U A35G G70U, 0.77; under A15U U41C G42A U72G, 0.13.
As for A15U G19A A28G U31C U43A, the figure is 0.1; as for A15U G24A A28G U41C U72G U76G U80C, 0.04; as for G16A A35G A45G U49C A56G U74A U78C, 0.84.
As for A15U U51A U60A U80C, the figure is 0.28; as for A15U U26C U51C, 0.11; as for A15G U69C A77G, 0.32.
Take G16C U51A A56U U58A U72C A77G: the self-cleavage was 0.12.
For the variant A15U A45G G52A A65G, the self-cleavage worked out at 0.48.
Under A15U A21G A56G U67C C71U stands 0.25.
As for A15U U26C U80A, the figure is 0.71; as for A15G U54C A65G A75U, 0.34.
As for A15U A20G C38U U49C G52C U69A, the figure is 0.04.
With A15U C34U U58C A65G, the self-cleavage stood at 0.06.
Under A15G U72A U80A stands 0.9; under A15U A21G U43A A45G U72C, 0.3.
As for A15U A35G A56G A57G U80C, the figure is 1.26; as for G16C U25C A45U, 0.19.
As for A15U U54C U66C U74C, the figure is 0.15; as for A15U G16A U25C, 0.18; as for A15U A18G U31C A45G A64U U72C U74C, 0.11.
Take A15U U48C U51C: the self-cleavage was 0.27.
With A15U A21G A28U A56G U67C C71U, the self-cleavage was found to be 0.14.
In the case of G16A A35U U51A A56G A65G U78A, the self-cleavage is 0.06.
As for A15U A18U A20U U48C A56U U58A, the figure is 0.23; as for A15G U26C U60C A64U, 0.09.
Under A15U G16A U41C G63U stands 0.32.
Under G16C A20U U26C A45G U78C U80C stands 0.17; under A15U A21G A28G C40A, 0.04; under A15U C29U A64G U66C U72C, 0.09.
As for A15U U26A C29A U54C, the self-cleavage is 0.07.
Turning to A15U A18U U43C, the self-cleavage worked out at 0.21.
As for A15U A20G U69A, the figure is 0.3; as for A15G U26G U69C, 0.39; as for A15U U43C A57G, 0.12.
Under A15U U25A C81A stands 0.1; under G16A A35U A47C G52U G63A, 0.17; under A15U C17A A18G A20G, 0.35.
For A15U U26A U67C U72C, the self-cleavage is 0.12.
As to A15U A35G C40U A57G U74C, the self-cleavage came out at 1.27.
With A15U C44U U54A U76C, the self-cleavage worked out at 0.08.
Under A15G U26C A35G A47G U60C stands 0.17; under A15G U58C A65G, 0.27.
Regarding A15U A18U U25A A35U U54C, the self-cleavage amounted to 0.2.
Consider A15U C34G A64G U67C, for which the self-cleavage was found to be 0.03.
Under A15U U41A A64U stands 0.1; under A15U A18G U31C U69A, 0.06; under G16C U25C A45G U60A U69A, 0.25.
For A15G U31G A47G U48C A57U, the self-cleavage came out at 0.09.
As for A15U A57G A64U, the figure is 0.14; as for A15U G16A A65U, 0.11; as for A15G U41C U51A A65G, 0.65.
Consider A15U A56U U67C C68A U69C, for which the self-cleavage came out at 0.09.
As to G16A A64G U78C U80C, the self-cleavage is 0.3.
Regarding A15U A18U A47G A57G, the self-cleavage turned out to be 0.3.
Under A15U A18G A56U C59U U67C stands 0.15.
On to A15U U26A U58C C62U, for which the self-cleavage came to 0.15.
As for A15U C44U U54C, the figure is 0.16; as for G16A U41C C71U, 1.15; as for A15U G30A C37A U43A A57G U66A, 0.06.
A15U C27U U31A A47G U66C: the self-cleavage is 0.07.
Under A15U G30U U41C U43C U58A U69A U72G stands 0.04; under A15G U41A A56G U60A, 0.07.
Regarding A15U G63C U66C U78A, the self-cleavage came out at 0.11.
As for A15U A35G U43A U49A U60A A64U, the figure is 0.41.
Turning to A15U C23U U54C A64U U67C, the self-cleavage turned out to be 0.14.
For the variant G16C U48G U54A U72A, the self-cleavage worked out at 0.04.
With A15G U26A U67C U76C, the self-cleavage was 0.16.
As for A15G U41C U48C, the self-cleavage was determined as 0.38.
As for A15G U48C U58C, the figure is 0.15; as for A15U A18G C29U U31A U48C, 0.08.
